Data from the CheMixHub viscosity set.
± gives the uncertainty stated by the source. Not every entry of the source has a single result; some have several. This list holds those alone. The source may hold further records. The records of an entry are repeats (runs, samples, wells, individuals or studies). A tag in brackets gives the origin of a value. A, B and so on number the origins entry by entry. Additions like (4×) count equal records among those shown.

| Structure (SMILES) | viscosity (303.15 K, 100 kPa) | viscosity (308.15 K, 100 kPa) | viscosity (313.15 K, 100 kPa) | viscosity (318.15 K, 100 kPa) | viscosity (298.15 K, 101.33 kPa) | viscosity (303.15 K, 101 kPa) | viscosity (303.15 K, 101.33 kPa) | viscosity (308.15 K, 101 kPa) | viscosity (308.15 K, 101.33 kPa) | viscosity (293.15 K, 101 kPa) | viscosity (298.15 K, 101 kPa) | viscosity (313.15 K, 101 kPa) | viscosity (323.15 K, 101 kPa) | viscosity (303 K, 101 kPa) | viscosity (313 K, 101 kPa) |
| --- | --- | --- | --- | --- | --- | --- | --- | --- | --- | --- | --- | --- | --- | --- | --- |
| COc1ccccc1N | 4.922 ± 0.068 mPa·s [study A] and 4.923 ± 0.2 mPa·s [study B] and 4.92 ± 0.13 mPa·s [study C] and 4.923 ± 0.15 mPa·s [study D] and 4.923 ± 0.2 mPa·s [study E] and 4.922 ± 0.1 mPa·s [study F] | 4.512 ± 0.067 mPa·s [study A] and 4.571 ± 0.19 mPa·s [study B] and 4.51 ± 0.12 mPa·s [study C] and 4.571 ± 0.14 mPa·s [study D] and 4.571 ± 0.18 mPa·s [study E] and 4.512 ± 0.095 mPa·s [study F] | 4.185 ± 0.066 mPa·s [study A] and 4.217 ± 0.17 mPa·s [study B] and 4.19 ± 0.11 mPa·s [study C] and 4.217 ± 0.13 mPa·s [study D] and 4.217 ± 0.17 mPa·s [study E] and 4.185 ± 0.088 mPa·s [study F] | 3.883 ± 0.065 mPa·s [study A] and 3.883 ± 0.16 mPa·s [study B] and 3.88 ± 0.1 mPa·s [study C] and 3.886 ± 0.082 mPa·s [study D] |  |  |  |  |  |  |  |  |  |  |  |
| COC(C)=O |  |  |  |  | 0.385 ± 0.006 mPa·s [study A] and 0.388 ± 0.012 mPa·s [study B] and 0.391 ± 0.006 mPa·s [study C] and 0.391 ± 0.044 mPa·s [study D] and 0.364 ± 0.004 mPa·s [study E] | 0.37 ± 0.031 mPa·s [study A] and 0.365 ± 0.022 mPa·s [study B] and 0.372 ± 0.01 mPa·s [study C] and 0.3863 ± 0.006 mPa·s [study D] and 0.3524 ± 0.0045 mPa·s [study E] and 0.3524 ± 0.0032 mPa·s [study F] and 0.37 ± 0.008 mPa·s [study G] | 0.366 ± 0.006 mPa·s [study A] and 0.371 ± 0.011 mPa·s [study B] and 0.3442 ± 0.0033 mPa·s [study C] and 0.372 ± 0.006 mPa·s [study D] and 0.372 ± 0.042 mPa·s [study E] and 0.365 ± 0.003 mPa·s [study F] | 0.352 ± 0.03 mPa·s [study A] and 0.349 ± 0.021 mPa·s [study B] and 0.354 ± 0.01 mPa·s [study C] and 0.3695 ± 0.0059 mPa·s [study D] and 0.33 ± 0.009 mPa·s [study E] and 0.357 ± 0.008 mPa·s [study F] | 0.348 ± 0.006 mPa·s [study A] and 0.352 ± 0.011 mPa·s [study B] and 0.355 ± 0.006 mPa·s [study C] and 0.355 ± 0.041 mPa·s [study D] and 0.349 ± 0.003 mPa·s [study E] |  |  |  |  |  |  |
| CCC(C)=O | 0.3827 ± 0.0061 mPa·s [study A] and 0.383 ± 0.016 mPa·s [study B] and 0.37 ± 0.04 mPa·s [study C] and 0.367 ± 0.005 mPa·s [study D] |  | 0.3499 ± 0.0058 mPa·s [study A] and 0.304 ± 0.012 mPa·s [study B] and 0.34 ± 0.03 mPa·s [study C] and 0.333 ± 0.004 mPa·s [study D] |  |  | 0.3712 ± 0.0055 mPa·s [study A] and 0.383 ± 0.019 mPa·s [study B] and 0.37 ± 0.01 mPa·s [study C] and 0.378 ± 0.004 mPa·s [study D] and 0.3885 ± 0.01 mPa·s [study E] and 0.367 ± 0.011 mPa·s [study F] |  | 0.3542 ± 0.0054 mPa·s [study A] and 0.344 ± 0.018 mPa·s [study B] and 0.3547 ± 0.0095 mPa·s [study C] and 0.355 ± 0.01 mPa·s [study D] and 0.344 ± 0.0048 mPa·s [study E] and 0.344 ± 0.0067 mPa·s [study F] and 0.344 ± 0.005 mPa·s [study G] and 0.344 ± 0.005 mPa·s [study H] |  | 0.4054 ± 0.0058 mPa·s [study A] and 0.397 ± 0.004 mPa·s [study B] and 0.411 ± 0.011 mPa·s [study C] and 0.428 ± 0.011 mPa·s [study D] | 0.404 ± 0.011 mPa·s, 0.379 ± 0.012 mPa·s, 0.3856 ± 0.0053 mPa·s, 0.3856 ± 0.0075 mPa·s, 0.3856 ± 0.0052 mPa·s (2×), 0.4 ± 0.0038 mPa·s, 0.4 ± 0.004 mPa·s, 0.39 ± 0.01 mPa·s, 0.4094 ± 0.023 mPa·s, 0.394 ± 0.0043 mPa·s [several studies] | 0.3368 ± 0.0053 mPa·s [study A] and 0.326 ± 0.004 mPa·s [study B] and 0.349 ± 0.0091 mPa·s [study C] and 0.334 ± 0.011 mPa·s [study D] | 0.3036 ± 0.0051 mPa·s [study A] and 0.3148 ± 0.0036 mPa·s [study B] and 0.3203 ± 0.02 mPa·s [study C] and 0.306 ± 0.011 mPa·s [study D] |  |  |
| C1CCCCC1 |  |  |  |  | 0.8856 ± 0.023 mPa·s, 0.869 ± 0.023 mPa·s, 0.9009 ± 0.011 mPa·s, 0.9062 ± 0.0077 mPa·s, 0.883 ± 0.006 mPa·s, 0.876 ± 0.011 mPa·s, 0.877 ± 0.022 mPa·s, 0.814 ± 0.021 mPa·s, 0.8958 ± 0.0086 mPa·s [several studies] | 0.819 ± 0.016 mPa·s (2×), 0.82 ± 0.007 mPa·s, 0.799 ± 0.01 mPa·s, 0.8195 ± 0.0091 mPa·s, 0.818 ± 0.008 mPa·s, 0.8192 ± 0.021 mPa·s, 0.786 ± 0.021 mPa·s, 0.819 ± 0.008 mPa·s, 0.7976 ± 0.0095 mPa·s, 0.8007 ± 0.012 mPa·s [several studies] | 0.751 ± 0.075 mPa·s [study A] and 0.702 ± 0.009 mPa·s [study B] and 0.804 ± 0.021 mPa·s [study C] and 0.749 ± 0.019 mPa·s [study D] and 0.8224 ± 0.0079 mPa·s [study E] | 0.763 ± 0.007 mPa·s [study A] and 0.753 ± 0.008 mPa·s [study B] and 0.7878 ± 0.0065 mPa·s [study C] and 0.7546 ± 0.02 mPa·s [study D] and 0.7558 ± 0.0081 mPa·s [study E] and 0.7634 ± 0.0049 mPa·s [study F] | 0.757 ± 0.0096 mPa·s [study A] and 0.644 ± 0.009 mPa·s [study B] and 0.737 ± 0.019 mPa·s [study C] and 0.744 ± 0.005 mPa·s [study D] and 0.692 ± 0.018 mPa·s [study E] and 0.7575 ± 0.0074 mPa·s [study F] |  | 0.8824 ± 0.023 mPa·s, 0.9287 ± 0.012 mPa·s, 0.9006 ± 0.0057 mPa·s, 0.8876 ± 0.023 mPa·s, 0.8859 ± 0.011 mPa·s, 0.8887 ± 0.0088 mPa·s, 0.888 ± 0.009 mPa·s, 0.877 ± 0.023 mPa·s, 0.8829 ± 0.011 mPa·s, 0.889 ± 0.009 mPa·s [several studies] |  |  | 0.93 ± 0.02 mPa·s [study A] and 0.8047 ± 0.0055 mPa·s, 0.8044 ± 0.0055 mPa·s, 0.805 ± 0.0055 mPa·s, 0.8049 ± 0.0055 mPa·s [study B] | 0.81 ± 0.02 mPa·s [study A] and 0.6878 ± 0.0048 mPa·s, 0.6879 ± 0.0048 mPa·s, 0.6877 ± 0.0048 mPa·s, 0.687 ± 0.0048 mPa·s [study B] |
